Data taken from the supplement of paper PMC8728848.
The other results are listed elsewhere or left out.

Assays:
Assay in all cases: glycan array binding signal (z-score within array); higher = stronger binding
Conditions in all cases: glycan notation: IUPAC condensed, linker removed
[1] = biological target: Neu5Ac(a2-3)Gal(b1-4)GlcNAc(b1-3)Gal(b1-4)[Fuc(a1-3)]GlcNAc
Summary of the method: (§1)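 Arrays were curated from the Consortium for Functional Glycomics database, 3228 in total, and kept only where the protein sequence was available. Binding is expressed as a within-array Z-score. This score was averaged across arrays of the same protein sequence at different concentrations or buffers and across linkers, and negative values can be read as non-binding.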

[2] = biological target: Neu5Ac(a2-3)Gal(b1-4)GlcNAc(b1-3)GalNAc
Summary of the method: as §1

[3] = biological target: Neu5Ac(a2-3)Gal(b1-4)GlcNAc(b1-3)[Neu5Ac(a2-3)Gal(b1-4)GlcNAc(b1-6)]GalNAc
Summary of the method: as §1

[4] = biological target: Neu5Ac(a2-3)Gal(b1-4)GlcNAc(b1-6)GalNAc
Summary of the method: as §1

[5] = biological target: Neu5Ac(a2-3)Gal(b1-4)GlcNAc(b1-6)[Gal(b1-3)]GalNAc
Summary of the method: as §1

[6] = biological target: Neu5Ac(a2-3)Gal(b1-4)GlcNAc(b1-6)[Neu5Ac(a2-3)Gal(b1-3)]GalNAc
Summary of the method: as §1

[7] = biological target: Neu5Ac(a2-3)Gal(b1-4)GlcNAc6S
Summary of the method: as §1

[8] = biological target: Neu5Ac(a2-3)Gal(b1-4)[Fuc(a1-3)]GlcNAc
Summary of the method: as §1

[9] = biological target: Neu5Ac(a2-3)Gal(b1-4)[Fuc(a1-3)]GlcNAc(b1-2)Man
Summary of the method: as §1

[10] = biological target: Neu5Ac(a2-3)Gal(b1-4)[Fuc(a1-3)]GlcNAc(b1-3)Gal
Summary of the method: as §1

[11] = biological target: Neu5Ac(a2-3)Gal(b1-4)[Fuc(a1-3)]GlcNAc(b1-3)Gal(b1-4)GlcNAc
Summary of the method: as §1

[12] = biological target: Neu5Ac(a2-3)Gal(b1-4)[Fuc(a1-3)]GlcNAc(b1-3)Gal(b1-4)[Fuc(a1-3)]GlcNAc(b1-3)Gal(b1-4)[Fuc(a1-3)]GlcNAc
Summary of the method: as §1

[13] = biological target: Neu5Ac(a2-3)Gal(b1-4)[Fuc(a1-3)]GlcNAc(b1-3)GalNAc
Summary of the method: as §1

[14] = biological target: Neu5Ac(a2-3)Gal(b1-4)[Fuc(a1-3)]GlcNAc(b1-6)[Gal(b1-3)]GalNAc
Summary of the method: as §1

[15] = biological target: Neu5Ac(a2-3)Gal(b1-4)[Fuc(a1-3)]GlcNAc(b1-6)[Neu5Ac(a2-3)Gal(b1-3)]GalNAc
Summary of the method: as §1

[16] = biological target: Neu5Ac(a2-3)Gal(b1-4)[Fuc(a1-3)]GlcNAc6S
Summary of the method: as §1

[17] = biological target: Neu5Ac(a2-3)Gal6S(b1-4)GlcNAc
Summary of the method: as §1

[18] = biological target: Neu5Ac(a2-3)Gal6S(b1-4)[Fuc(a1-3)]GlcNAc
Summary of the method: as §1

Neu5Ac(a2-3)GalNAc = biological target: Neu5Ac(a2-3)GalNAc
Summary of the method: as §1

[19] = biological target: Neu5Ac(a2-3)GalNAc(b1-4)GlcNAc
Summary of the method: as §1

[20] = biological target: Neu5Ac(a2-3)[GalNAc(b1-4)]Gal(b1-4)Glc
Summary of the method: as §1

[21] = biological target: Neu5Ac(a2-3)[GalNAc(b1-4)]Gal(b1-4)GlcNAc
Summary of the method: as §1

[22] = biological target: Neu5Ac(a2-3)[GalNAc(b1-4)]Gal(b1-4)GlcNAc(b1-3)GalNAc
Summary of the method: as §1

[23] = biological target: Neu5Ac(a2-3)[Neu5Ac(a2-6)]GalNAc
Summary of the method: as §1

Neu5Ac(a2-6)Gal = biological target: Neu5Ac(a2-6)Gal
Summary of the method: as §1

[24] = biological target: Neu5Ac(a2-6)Gal(b1-3)GlcNAc(b1-3)[Gal(b1-4)GlcNAc(b1-6)]Gal(b1-4)Glc
Summary of the method: as §1

Neu5Ac(a2-6)Gal(b1-4)Glc = biological target: Neu5Ac(a2-6)Gal(b1-4)Glc
Summary of the method: as §1

[25] = biological target: Neu5Ac(a2-6)Gal(b1-4)GlcNAc
Summary of the method: as §1

[26] = biological target: Neu5Ac(a2-6)Gal(b1-4)GlcNAc(b1-2)Man
Summary of the method: as §1

[27] = biological target: Neu5Ac(a2-6)Gal(b1-4)GlcNAc(b1-2)Man(a1-3)Man(b1-4)GlcNAc(b1-4)GlcNAc
Summary of the method: as §1

[28] = biological target: Neu5Ac(a2-6)Gal(b1-4)GlcNAc(b1-2)Man(a1-3)[Gal(b1-4)GlcNAc(b1-2)Man(a1-6)]Man(b1-4)GlcNAc(b1-4)GlcNAc
Summary of the method: as §1

[29] = biological target: Neu5Ac(a2-6)Gal(b1-4)GlcNAc(b1-2)Man(a1-3)[GlcNAc(b1-2)Man(a1-6)]Man(b1-4)GlcNAc(b1-4)GlcNAc
Summary of the method: as §1

[30] = biological target: Neu5Ac(a2-6)Gal(b1-4)GlcNAc(b1-2)Man(a1-3)[GlcNAc(b1-2)Man(b1-4)GlcNAc(b1-2)Man(a1-6)]Man(b1-4)GlcNAc(b1-4)GlcNAc
Summary of the method: as §1

[31] = biological target: Neu5Ac(a2-6)Gal(b1-4)GlcNAc(b1-2)Man(a1-3)[GlcNAc(b1-4)][Neu5Ac(a2-6)Gal(b1-4)GlcNAc(b1-2)Man(a1-6)]Man(b1-4)GlcNAc(b1-4)GlcNAc
Summary of the method: as §1

[32] = biological target: Neu5Ac(a2-6)Gal(b1-4)GlcNAc(b1-2)Man(a1-3)[Man(a1-6)]Man(b1-4)GlcNAc(b1-4)GlcNAc
Summary of the method: as §1

[33] = biological target: Neu5Ac(a2-6)Gal(b1-4)GlcNAc(b1-2)Man(a1-3)[Neu5Ac(a2-3)Gal(b1-4)GlcNAc(b1-2)Man(a1-6)]Man(b1-4)GlcNAc(b1-4)GlcNAc
Summary of the method: as §1

[34] = biological target: Neu5Ac(a2-6)Gal(b1-4)GlcNAc(b1-2)Man(a1-3)[Neu5Ac(a2-6)Gal(b1-4)GlcNAc(b1-2)Man(a1-6)]Man(b1-4)GlcNAc(b1-4)GlcNAc
Summary of the method: as §1

[35] = biological target: Neu5Ac(a2-6)Gal(b1-4)GlcNAc(b1-2)Man(a1-3)[Neu5Ac(a2-6)Gal(b1-4)GlcNAc(b1-2)Man(a1-6)]Man(b1-4)GlcNAc(b1-4)[Fuc(a1-6)]GlcNAc
Summary of the method: as §1

[36] = biological target: Neu5Ac(a2-6)Gal(b1-4)GlcNAc(b1-2)Man(a1-6)Man(b1-4)GlcNAc(b1-4)GlcNAc
Summary of the method: as §1

[37] = biological target: Neu5Ac(a2-6)Gal(b1-4)GlcNAc(b1-2)Man(a1-6)[Gal(b1-4)GlcNAc(b1-2)Man(a1-3)]Man(b1-4)GlcNAc(b1-4)GlcNAc
Summary of the method: as §1

[38] = biological target: Neu5Ac(a2-6)Gal(b1-4)GlcNAc(b1-2)Man(a1-6)[GlcNAc(b1-2)Man(a1-3)]Man(b1-4)GlcNAc(b1-4)GlcNAc
Summary of the method: as §1

[39] = biological target: Neu5Ac(a2-6)Gal(b1-4)GlcNAc(b1-2)Man(a1-6)[Man(a1-3)]Man(b1-4)GlcNAc(b1-4)GlcNAc
Summary of the method: as §1

[40] = biological target: Neu5Ac(a2-6)Gal(b1-4)GlcNAc(b1-2)[Neu5Ac(a2-6)Gal(b1-4)GlcNAc(b1-4)]Man(a1-3)[GlcNAc(b1-4)][Neu5Ac(a2-6)Gal(b1-4)GlcNAc(b1-2)[Neu5Ac(a2-6)Gal(b1-4)GlcNAc(b1-6)]Man(a1-6)]Man(b1-4)GlcNAc(b1-4)GlcNAc
Summary of the method: as §1

[41] = biological target: Neu5Ac(a2-6)Gal(b1-4)GlcNAc(b1-2)[Neu5Ac(a2-6)Gal(b1-4)GlcNAc(b1-4)]Man(a1-3)[GlcNAc(b1-4)][Neu5Ac(a2-6)Gal(b1-4)GlcNAc(b1-4)Man(a1-6)]Man(b1-4)GlcNAc(b1-4)GlcNAc
Summary of the method: as §1

[42] = biological target: Neu5Ac(a2-6)Gal(b1-4)GlcNAc(b1-2)[Neu5Ac(a2-6)Gal(b1-4)GlcNAc(b1-6)]Man(a1-6)[Neu5Ac(a2-6)Gal(b1-4)GlcNAc(b1-2)Man(a1-3)][GlcNAc(b1-4)]Man(b1-4)GlcNAc(b1-4)GlcNAc
Summary of the method: as §1

B1: rCNL (Clitocybe nebularis), B2ZRS9 (protein)
chain: SITPGTYNITNVAYTNRLIDLTGSNPAENTLIIGHHLNKTPSGYGNQQWTLVQLPHTTIYTMQAVNPQSYVRVRDDNLVDGAALVGSQQPTPVSIESAGNSGQFRIKIPNLGLALTLPSDANSTPIVLGEVDETSTNQLWAFESVSAV
glycan array binding signal (z-score) [1]: -0.304
glycan array binding signal (z-score) [2]: -0.306
glycan array binding signal (z-score) [3]: -0.213
glycan array binding signal (z-score) [4]: -0.218
glycan array binding signal (z-score) [5]: -0.314
glycan array binding signal (z-score) [6]: -0.33
glycan array binding signal (z-score) [7]: -0.298
glycan array binding signal (z-score) [8]: 0.296
glycan array binding signal (z-score) [9]: -0.218
glycan array binding signal (z-score) [10]: 0.369
glycan array binding signal (z-score) [11]: 0.452
glycan array binding signal (z-score) [12]: -0.007
glycan array binding signal (z-score) [13]: -0.241
glycan array binding signal (z-score) [14]: 0.493
glycan array binding signal (z-score) [15]: -0.273
glycan array binding signal (z-score) [16]: -0.184
glycan array binding signal (z-score) [17]: -0.304
glycan array binding signal (z-score) [18]: -0.309
glycan array binding signal (z-score) (Neu5Ac(a2-3)GalNAc): -0.301
glycan array binding signal (z-score) [19]: -0.322
glycan array binding signal (z-score) [20]: 0.768
glycan array binding signal (z-score) [21]: 0.942
glycan array binding signal (z-score) [22]: 1.09
glycan array binding signal (z-score) [23]: -0.314
glycan array binding signal (z-score) (Neu5Ac(a2-6)Gal): -0.305
glycan array binding signal (z-score) [24]: -0.227
glycan array binding signal (z-score) (Neu5Ac(a2-6)Gal(b1-4)Glc): -0.312
glycan array binding signal (z-score) [25]: -0.3
glycan array binding signal (z-score) [26]: -0.22
glycan array binding signal (z-score) [27]: -0.296
glycan array binding signal (z-score) [28]: -0.226
glycan array binding signal (z-score) [29]: -0.224
glycan array binding signal (z-score) [30]: -0.269
glycan array binding signal (z-score) [31]: -0.23
glycan array binding signal (z-score) [32]: -0.292
glycan array binding signal (z-score) [33]: -0.214
glycan array binding signal (z-score) [34]: -0.24
glycan array binding signal (z-score) [35]: -0.223
glycan array binding signal (z-score) [36]: -0.294
glycan array binding signal (z-score) [37]: 0.182
glycan array binding signal (z-score) [38]: -0.237
glycan array binding signal (z-score) [39]: -0.253
glycan array binding signal (z-score) [40]: -0.225
glycan array binding signal (z-score) [41]: -0.225
glycan array binding signal (z-score) [42]: -0.222
